Measured values as given in paper PMC6212790.
Some of the results follow. At the low end of the ranking, values are background and their order means little.
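Also: rank score from −0.5 (least bound) to 0.5 (best bound).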

The sequences below were run against T1, GST-Rok-C97-191 (UniProt O34857) (assay: protein binding microarray). Conditions: Rok is a gene silencer of Bacillus subtilis; high values mean tight binding; most listed sequences are background and not binding sites; double strand, one strand shown.
T1 sequence: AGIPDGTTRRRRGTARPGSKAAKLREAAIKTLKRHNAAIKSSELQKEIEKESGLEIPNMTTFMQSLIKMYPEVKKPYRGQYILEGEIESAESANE
Work on AGTCCTAT yielded a binding signal of 0.102 E-score.
ACGCTCAA showed a binding signal of -0.0503 E-score.
For CCATTCCC, the binding signal was -0.108 E-score.
With CAGTACGC the binding signal was -0.15 E-score.
GGGCTACA showed a binding signal of -0.0485 E-score.
With CGCTTTAA the binding signal was -0.0773 E-score.
Sequence GCATAGGC has a binding signal of -0.0886 E-score.
TCTATGAA was tested, and the binding signal was 0.163 E-score.
Sequence CCTTAGGC has a binding signal of -0.19 E-score.
Work on CAGAGAAG yielded a binding signal of -0.0435 E-score.
Sequence ACGTATAT has a binding signal of 0.373 E-score.
GTGCACCA showed a binding signal of -0.138 E-score.
For ACAGCTGT, the binding signal was 0.0119 E-score.
ACCATTCA showed a binding signal of 0.0811 E-score.
With CCATTCTA the binding signal was 0.324 E-score.
AAATTACA was tested, and the binding signal was 0.325 E-score.
Work on CCGGGCAC yielded a binding signal of -0.216 E-score.
Work on CCAACAAC yielded a binding signal of -0.0721 E-score.
For ATGTGTGC, the binding signal was -0.12 E-score.
Sequence CAACCAAG has a binding signal of -0.0171 E-score.
AATGAGGC gave a binding signal of -0.0993 E-score.
Sequence ATATATAC has a binding signal of 0.367 E-score.
Sequence ATTCGAGG has a binding signal of 0.0198 E-score.
AGTTACCA gave a binding signal of 0.28 E-score.
Sequence CCATGATA has a binding signal of 0.0924 E-score.
ACTATGGG showed a binding signal of 0.15 E-score.
CACGTCAA showed a binding signal of -0.000438 E-score.
With ACCGCCAT the binding signal was -0.11 E-score.
With ATACCACA the binding signal was 0.0711 E-score.
For ATTTGTCC, the binding signal was -0.0598 E-score.
In the case of ACGGCAAG, the binding signal is reported as 0.0145 E-score.
For TACTACAA, the binding signal was 0.303 E-score.
For ATCACCTG, the binding signal was 0.125 E-score.
In the case of ATCACAGC, the binding signal is reported as 0.216 E-score.
ACCGCCCA was tested, and the binding signal was -0.204 E-score.
Work on ACATCTTC yielded a binding signal of 0.0581 E-score.
ATCAAGCG gave a binding signal of -0.186 E-score.
With ACTGAATC the binding signal was 0.000341 E-score.
With GTCATGCA the binding signal was -0.133 E-score.
AATAACGC was tested, and the binding signal was -0.0378 E-score.
CTTCGCTA gave a binding signal of 0.0332 E-score.
CGGCATGC showed a binding signal of -0.201 E-score.
GTGACTCA showed a binding signal of -0.115 E-score.
For AAGGACTC, the binding signal was -0.0498 E-score.
Sequence ATTTGTAA has a binding signal of 0.203 E-score.
With GGTCCATA the binding signal was -0.0791 E-score.
GCTGTTCA was tested, and the binding signal was -0.0471 E-score.
With CGGATTCA the binding signal was 0.0279 E-score.
GACGGTCA showed a binding signal of 0.0143 E-score.
AATCTCCG gave a binding signal of 0.0984 E-score.
Work on GGCCGTTA yielded a binding signal of -0.0731 E-score.
CGAAAGAG showed a binding signal of -0.194 E-score.
ACGCCATG showed a binding signal of -0.135 E-score.
In the case of ACTTACGA, the binding signal is reported as 0.153 E-score.
Sequence GAGTCTAA has a binding signal of 0.0843 E-score.
Work on CTCACCTA yielded a binding signal of 0.0853 E-score.
Work on CCGAATCG yielded a binding signal of -0.179 E-score.
CAAGCGCC showed a binding signal of -0.193 E-score.
CTTGGGAC was tested, and the binding signal was -0.184 E-score.
GGTGTATA was tested, and the binding signal was 0.266 E-score.
AAAAATAA was tested, and the binding signal was 0.244 E-score.
In the case of ATGATCCG, the binding signal is reported as -0.0917 E-score.
AATGAGAT showed a binding signal of 0.145 E-score.
AACGTTCA gave a binding signal of 0.0011 E-score.
Work on ACAAGTCC yielded a binding signal of -0.174 E-score.
Sequence AACTCTGG has a binding signal of -0.0501 E-score.
In the case of AAGTTTAA, the binding signal is reported as -0.0234 E-score.
In the case of ACTTTCCA, the binding signal is reported as 0.255 E-score.
Sequence CACGACAG has a binding signal of -0.0669 E-score.
Work on TCAGGTCA yielded a binding signal of -0.0573 E-score.
Sequence GCCCCCAC has a binding signal of -0.27 E-score.
Sequence GGCCGTAA has a binding signal of 0.00218 E-score.
CCTAAACA was tested, and the binding signal was -0.122 E-score.
Sequence ACTCTGGG has a binding signal of 0.0142 E-score.
CGACGACA gave a binding signal of -0.186 E-score.
AAATGTAA gave a binding signal of 0.349 E-score.
With CCAGTCGG the binding signal was -0.167 E-score.
TGTTCAAA was tested, and the binding signal was 0.0172 E-score.
Work on CTCCCTAA yielded a binding signal of -0.274 E-score.
CGCCTCCC gave a binding signal of -0.248 E-score.
ATGAAGAC gave a binding signal of -0.139 E-score.
CACTACTA showed a binding signal of 0.344 E-score.
Sequence GATTGACC has a binding signal of -0.023 E-score.
Sequence AACATCAT has a binding signal of 0.00751 E-score.
For ATCAACCG, the binding signal was -0.0451 E-score.
In the case of AGCCAGAC, the binding signal is reported as -0.155 E-score.
In the case of GCCCCAAA, the binding signal is reported as -0.228 E-score.
In the case of CGCCATTA, the binding signal is reported as 0.12 E-score.
Sequence GAATTATC has a binding signal of 0.23 E-score.
In the case of CTATACAG, the binding signal is reported as 0.0862 E-score.
With ACGTTGAA the binding signal was 0.0897 E-score.
Sequence AGATTCGC has a binding signal of -0.128 E-score.
AATGCTCG was tested, and the binding signal was 0.0299 E-score.
Work on CTCACGGA yielded a binding signal of -0.178 E-score.
AGCAAGCG was tested, and the binding signal was -0.0284 E-score.
For CAGTGTTA, the binding signal was 0.0901 E-score.
In the case of AGGTCAAT, the binding signal is reported as -0.0172 E-score.
GCCTCTGA was tested, and the binding signal was -0.245 E-score.
CGAAGCTC gave a binding signal of -0.173 E-score.
CTTTAGGC gave a binding signal of -0.0933 E-score.
For AATCTTAT, the binding signal was 0.185 E-score.
AGCAGAGA gave a binding signal of -0.135 E-score.
CAACCTTG was tested, and the binding signal was -0.0702 E-score.
With ATAGTGAT the binding signal was 0.0864 E-score.
AATTTCGA showed a binding signal of 0.271 E-score.
In the case of ACCGACTG, the binding signal is reported as -0.0161 E-score.
Work on TACTTCGA yielded a binding signal of 0.232 E-score.
Sequence AGATCCGA has a binding signal of -0.0616 E-score.
For CTATAAGA, the binding signal was 0.156 E-score.
In the case of ATGTCGAG, the binding signal is reported as -0.132 E-score.
AGTCAAAC showed a binding signal of 0.117 E-score.
Work on TCTGCCAA yielded a binding signal of -0.0966 E-score.
ATTGTAAG was tested, and the binding signal was 0.016 E-score.
Work on CAATCACG yielded a binding signal of -0.245 E-score.
AAATCTGC gave a binding signal of -0.0413 E-score.
CAGTAAGC gave a binding signal of -0.0499 E-score.
In the case of CCAATTCG, the binding signal is reported as 0.00764 E-score.
For AGTGAAGA, the binding signal was 0.164 E-score.
For GGGAGTGA, the binding signal was -0.147 E-score.
TTATCCAA was tested, and the binding signal was 0.108 E-score.
With CCCGGTCC the binding signal was -0.102 E-score.
With CGGTAATC the binding signal was -0.184 E-score.
ACGATGTA showed a binding signal of 0.00217 E-score.
ACTAAGAA showed a binding signal of 0.000298 E-score.
Work on GTAACTTA yielded a binding signal of 0.228 E-score.
Sequence GACGGTGC has a binding signal of -0.143 E-score.
CCTCGGAG was tested, and the binding signal was -0.234 E-score.
Sequence AGGCGAGA has a binding signal of -0.14 E-score.
Sequence ATCTATAG has a binding signal of 0.295 E-score.
CACTGATC was tested, and the binding signal was -0.131 E-score.
Work on AATCATAT yielded a binding signal of 0.166 E-score.
In the case of AGTGCGAT, the binding signal is reported as -0.0697 E-score.
Work on GATGAACA yielded a binding signal of 0.138 E-score.
For ATTTGCCA, the binding signal was 0.177 E-score.
ATCTAGAT gave a binding signal of 0.255 E-score.
Sequence ATTCCCGC has a binding signal of -0.0834 E-score.
For AAGGCTTA, the binding signal was -0.207 E-score.
With CGCAGTAG the binding signal was 0.0362 E-score.
Sequence CGCGCCCG has a binding signal of -0.183 E-score.
With ATCCTTTA the binding signal was -0.0194 E-score.
In the case of GCGGCAGA, the binding signal is reported as -0.0665 E-score.
ACGTTTGG gave a binding signal of 0.0256 E-score.
Sequence ACCCCTAC has a binding signal of -0.2 E-score.
Work on CCCCGTCC yielded a binding signal of -0.175 E-score.
For CACTTGGA, the binding signal was -0.124 E-score.
TAGCAGAA was tested, and the binding signal was 0.073 E-score.
Work on ACTCCTCG yielded a binding signal of -0.154 E-score.
With AATACTAA the binding signal was 0.287 E-score.
With ATCAGTCC the binding signal was -0.0613 E-score.
AGTGGGTA was tested, and the binding signal was 0.2 E-score.
Sequence ACAGCGCA has a binding signal of 0.0237 E-score.
CACGAGCA showed a binding signal of -0.0421 E-score.
In the case of GATCTTAC, the binding signal is reported as 0.0962 E-score.
With CCCAGGCC the binding signal was -0.345 E-score.
With ACAAAGTA the binding signal was 0.275 E-score.
For CCCTCCCC, the binding signal was -0.482 E-score.
Sequence GACTCTCA has a binding signal of -0.0851 E-score.
Sequence TCTATAAA has a binding signal of 0.161 E-score.
Sequence GCAATGCA has a binding signal of -0.0527 E-score.
For AGACCTAG, the binding signal was 0.0543 E-score.
ACGTTAAA showed a binding signal of 0.0842 E-score.
Work on ATGGAGCG yielded a binding signal of -0.0617 E-score.
For ATAAATGC, the binding signal was 0.265 E-score.
In the case of GAATAAGA, the binding signal is reported as 0.0835 E-score.
With ACATATAA the binding signal was 0.26 E-score.
CATTTACC gave a binding signal of 0.0643 E-score.
CCCTTTCA gave a binding signal of -0.125 E-score.
Work on AGAGGTAA yielded a binding signal of 0.149 E-score.
For GTTGGCAA, the binding signal was -0.0668 E-score.
For CCACCGTC, the binding signal was -0.219 E-score.
Sequence CATCGTCC has a binding signal of -0.217 E-score.
Work on AGGGAATG yielded a binding signal of -0.182 E-score.
